No constants are given. Whether binding was seen depends on the method and setting. Binding seen in cells or lysates may run through a third protein. Some results given as binding are weak or reduced against the parent protein; the word gives no strength. For part of these data: Sequences can lack the tags named with a protein.

By UniProt entry, the sequences of proteins in these tests, tags left out. Where a name states a change or a piece, a line headed by the entry shows the natural chain unless it says otherwise.
UniProt P51114: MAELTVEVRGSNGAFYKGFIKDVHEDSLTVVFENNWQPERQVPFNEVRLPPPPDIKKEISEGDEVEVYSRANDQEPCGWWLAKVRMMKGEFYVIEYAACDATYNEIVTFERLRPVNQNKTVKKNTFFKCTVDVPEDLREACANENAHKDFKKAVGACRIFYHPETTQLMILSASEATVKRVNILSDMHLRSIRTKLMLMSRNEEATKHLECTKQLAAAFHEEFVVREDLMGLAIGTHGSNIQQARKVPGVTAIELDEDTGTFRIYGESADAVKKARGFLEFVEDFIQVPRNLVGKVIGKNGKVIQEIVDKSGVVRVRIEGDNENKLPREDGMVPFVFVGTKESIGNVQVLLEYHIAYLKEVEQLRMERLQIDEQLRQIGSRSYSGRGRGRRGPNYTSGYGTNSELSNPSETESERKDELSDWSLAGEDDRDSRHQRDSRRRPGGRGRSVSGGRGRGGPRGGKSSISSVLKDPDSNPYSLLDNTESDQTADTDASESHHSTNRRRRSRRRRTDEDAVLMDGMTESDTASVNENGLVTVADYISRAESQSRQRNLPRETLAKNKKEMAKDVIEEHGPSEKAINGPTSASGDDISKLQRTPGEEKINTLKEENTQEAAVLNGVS
UniProt Q16637: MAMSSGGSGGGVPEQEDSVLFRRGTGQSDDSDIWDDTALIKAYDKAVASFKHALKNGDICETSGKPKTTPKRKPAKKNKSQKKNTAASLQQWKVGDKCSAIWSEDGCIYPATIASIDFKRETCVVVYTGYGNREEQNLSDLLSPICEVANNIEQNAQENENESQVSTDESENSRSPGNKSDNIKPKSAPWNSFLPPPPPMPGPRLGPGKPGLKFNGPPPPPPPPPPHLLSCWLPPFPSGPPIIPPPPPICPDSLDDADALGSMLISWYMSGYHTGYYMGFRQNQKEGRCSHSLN
UniProt P51116: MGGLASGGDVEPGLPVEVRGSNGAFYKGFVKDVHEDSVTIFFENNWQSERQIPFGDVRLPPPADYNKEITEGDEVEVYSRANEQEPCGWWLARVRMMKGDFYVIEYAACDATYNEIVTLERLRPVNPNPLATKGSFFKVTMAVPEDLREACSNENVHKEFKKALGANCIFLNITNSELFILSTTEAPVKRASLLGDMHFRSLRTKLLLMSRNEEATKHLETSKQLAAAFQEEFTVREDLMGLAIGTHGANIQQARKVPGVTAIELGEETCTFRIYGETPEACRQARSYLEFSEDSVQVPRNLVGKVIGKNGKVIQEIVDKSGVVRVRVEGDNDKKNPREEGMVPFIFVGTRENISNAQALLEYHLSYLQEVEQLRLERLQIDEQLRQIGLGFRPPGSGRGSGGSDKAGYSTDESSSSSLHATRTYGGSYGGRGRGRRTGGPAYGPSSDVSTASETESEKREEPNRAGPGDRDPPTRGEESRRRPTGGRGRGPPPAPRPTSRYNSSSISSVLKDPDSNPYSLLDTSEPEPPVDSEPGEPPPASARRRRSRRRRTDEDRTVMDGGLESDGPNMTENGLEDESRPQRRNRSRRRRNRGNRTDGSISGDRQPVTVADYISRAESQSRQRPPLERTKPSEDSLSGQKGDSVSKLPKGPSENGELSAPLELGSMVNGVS
UniProt Q9BRJ7: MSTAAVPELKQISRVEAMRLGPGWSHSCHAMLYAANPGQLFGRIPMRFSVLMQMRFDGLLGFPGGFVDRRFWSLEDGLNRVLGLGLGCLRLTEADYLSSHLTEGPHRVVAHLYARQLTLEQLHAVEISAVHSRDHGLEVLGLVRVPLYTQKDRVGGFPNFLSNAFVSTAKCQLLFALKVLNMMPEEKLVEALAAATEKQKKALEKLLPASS

One experiment deals with FLAG-FXR1 (UniProt P51114). Put plainly: co-IP; FLAG-tagged candidates expressed on their own in HEK293T; IP with α-FLAG, blot with α-SMN for endogenous SMN; also after siRNA silencing of PRMT1-8 (silencing of PRMT1 enhanced the co-IP with FLAG-FMRP).
In experiment [1] the target is GST-SMN (full-length WT, SMNWT) (human) (UniProt Q16637). Put plainly: pull-down; purified recombinant GST-SMN forms incubated with cell extracts containing FLAG-FMRP or FLAG-FXR1, glutathione-Sepharose beads, blot with α-FLAG or α-GST; only the target purified.
Experiment [2] has as its target MYC-BirA-SMN Y130C (human) (UniProt Q16637). In words: co-IP; FLAG-tagged candidates co-expressed with MYC-BirA or MYC-BirA-SMN forms in HEK293T; IP with α-MYC, blot with α-FLAG; 50 mM Tris-Cl pH 7.5, 200 mM NaCl, 0.1% Triton X, 10% glycerol.
The target of experiment [3] is MYC-BirA-SMN_(E134K) (human) (UniProt Q16637). The description is as above.
The target in the next experiment is MYC-BirA-SMN (human) (UniProt Q16637). The description is as above.
Experiment [4] deals with MYC-BirA-SMN_(AC/DC) (aromatic cage dead, W102A/Y109A/Y127A/Y130A quadruple mutant) (human) (UniProt Q16637). The description is as above.

Turning to “endogenous SMN (from UniProt Q16637 1-294)”, the binding result with FLAG-FXR1 is “binds”.

For the molecule FLAG-FXR1 (from UniProt P51114 1-621), the binding entry in experiment [1] is given as “binds”; in experiment [2], “no binding”; in experiment [3], “binds”; with MYC-BirA-SMN (human) it was “binds”; in experiment [4], “no binding”.

FLAG-FXR2 (from UniProt P51116 1-673): the binding result with MYC-BirA-SMN (human) was “binds”.

For FLAG-TIRR (from UniProt Q9BRJ7 1-211), in the experiment with MYC-BirA-SMN (human), the binding result is on record as “no binding”.

B1: FLAG-CSRP2 (protein, UniProt Q16527 1-193)
chain: MPVWGGGNKCGACGRTVYHAEEVQCDGRSFHRCCFLCMVCRKNLDSTTVAIHDEEIYCKSCYGKKYGPKGYGYGQGAGTLNMDRGERLGIKPESVQPHRPTTNPNTSKFAQKYGGAEKCSRCGDSVYAAEKIIGAGKPWHKNCFRCAKCGKSLESTTLTEKEGEIYCKGCYAKNFGPKGFGYGQGAGALVHAQ
On to B1, for which the binding entry with MYC-BirA-SMN (human) was “no binding”.

Values taken from publication PMC9684302.
